Out of some 310,000 compounds screened, about 14,000 (4.5%) showed an effect of 50% or more. Effects have a minus sign here. The list shows a part of the results.
Biological target: human ether-à-go-go-related gene (hERG) potassium channel (human, UniProt Q12809)
Assay: primary screen, population patch clamp on CHO cells stably expressing hERG
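Also: peak tail current of the secondary pulse compared with the same well before compound.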

Chain of human ether-à-go-go-related gene (hERG) potassium channel (Q12809 whole entry, looked up): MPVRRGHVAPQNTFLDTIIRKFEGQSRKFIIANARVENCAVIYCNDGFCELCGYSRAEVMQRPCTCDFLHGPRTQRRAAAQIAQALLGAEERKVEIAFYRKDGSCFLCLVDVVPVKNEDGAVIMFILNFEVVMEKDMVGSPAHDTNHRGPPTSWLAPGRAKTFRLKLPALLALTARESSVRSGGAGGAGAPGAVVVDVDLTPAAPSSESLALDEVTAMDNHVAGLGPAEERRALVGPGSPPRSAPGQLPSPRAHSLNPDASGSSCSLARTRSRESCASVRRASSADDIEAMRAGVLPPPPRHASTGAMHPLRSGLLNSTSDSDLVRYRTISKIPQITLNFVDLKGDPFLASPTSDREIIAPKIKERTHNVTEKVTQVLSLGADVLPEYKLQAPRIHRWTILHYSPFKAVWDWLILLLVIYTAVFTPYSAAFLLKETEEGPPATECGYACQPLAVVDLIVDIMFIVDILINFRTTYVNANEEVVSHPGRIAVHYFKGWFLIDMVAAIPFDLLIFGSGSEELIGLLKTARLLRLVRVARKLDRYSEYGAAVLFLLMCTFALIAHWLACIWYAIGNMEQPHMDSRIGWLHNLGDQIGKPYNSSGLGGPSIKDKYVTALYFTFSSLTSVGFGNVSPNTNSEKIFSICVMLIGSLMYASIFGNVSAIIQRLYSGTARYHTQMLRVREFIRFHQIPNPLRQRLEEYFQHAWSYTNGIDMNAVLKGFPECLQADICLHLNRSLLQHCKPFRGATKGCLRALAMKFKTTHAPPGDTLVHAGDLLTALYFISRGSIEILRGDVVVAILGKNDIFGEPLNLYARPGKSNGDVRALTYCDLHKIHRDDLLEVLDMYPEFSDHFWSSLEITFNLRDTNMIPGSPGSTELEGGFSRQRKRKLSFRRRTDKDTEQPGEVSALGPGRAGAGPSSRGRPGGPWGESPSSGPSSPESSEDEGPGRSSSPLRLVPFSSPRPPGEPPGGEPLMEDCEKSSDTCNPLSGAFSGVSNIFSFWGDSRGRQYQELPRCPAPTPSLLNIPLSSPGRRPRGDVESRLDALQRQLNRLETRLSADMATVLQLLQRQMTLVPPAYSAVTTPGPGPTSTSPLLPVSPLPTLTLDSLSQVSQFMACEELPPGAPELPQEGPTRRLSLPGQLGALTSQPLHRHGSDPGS

Going from `C#CCOCCOCCOCCNc1nc(N2CCN(C(=O)[C@H]([C@@H](C)CC)n3cc(CCCC[NH3+])nn3)CC2)nc(N2CCN(C(=O)[C@H](C)n3cc(CCC(=O)O)nn3)CC2)n1.[Cl-]` to `COc1ccc2nc(N3CCCC(C(=O)NCCCN4CCN(C)CC4)C3)sc2c1` (stereo not drawn), the “hERG current change (%, negative = inhibition) at 10uM” value falls from 10.5% to 1.67%.

Compared with `Nc1cc(C(=O)OCC(=O)N2CCCC2=O)ccc1Cl`, `O=C1CN(C(=O)COC(=O)c2ccc(N3CCCCCC3)c([N+](=O)[O-])c2)c2ccccc2N1` is lower in “hERG current change (%, negative = inhibition) at 10uM” value: 7.8% for the first, 5.72% for the second.

First: O=C(N/N=C/c1ccc(N2CCOCC2)cc1)c1cccs1
Second: O=C(N/N=C/c1ccc(Br)cc1)c1cc[n+](Cc2ccccc2)cc1.[Cl-]
The “hERG current change (%, negative = inhibition) at 10uM” value of the first is higher: 16.3% for the first, -10.7% for the second.

Compared with `C/C(=N/NC(=O)CC(=O)N/N=C(\C)c1ccc([N+](=O)[O-])cc1)c1ccc([N+](=O)[O-])cc1`, `O=C(NC(=S)NNC(=O)c1ccccc1O)c1ccc([N+](=O)[O-])cc1` is higher in “hERG current change (%, negative = inhibition) at 10uM” value: -28.8% for the first, 12.8% for the second.

Going from `CCn1nnc(NC(=O)c2ccc(-c3ccc(Cl)cc3)o2)n1` to `COc1ccccc1-c1nnc(-c2ccc(C)cc2)o1`, the “hERG current change (%, negative = inhibition) at 10uM” value rises from -53.5% to -33.3%.

Compared with `CCOC(=O)Cc1csc(NC(=O)/C=C\c2ccccc2Cl)n1`, `CCN(CC(=O)NCc1cccs1)C(=O)/C=C/c1cc(Br)ccc1OC(F)F` is lower in “hERG current change (%, negative = inhibition) at 10uM” value: 0.187% for the first, -40.8% for the second.

First: COc1ccc(Oc2nccc(-c3ccc(F)cc3)c2C#N)cc1
Second: COc1ccc(C(=O)Oc2ccc3c(C)cc(=O)oc3c2C(C)=O)cc1
The “hERG current change (%, negative = inhibition) at 10uM” value of the first is higher: 1% for the first, -8.57% for the second.

Compared with `O=C1c2c(O)cc(O)cc2O[C@@]12c1c(cc(O)c3c1O[C@H](c1ccc(O)cc1)[C@@H](O)C3)O[C@@H]2c1ccc(O)cc1`, `NC(=O)c1ccc(NC(=O)c2cccc3c2OCCCO3)cc1` is lower in “hERG current change (%, negative = inhibition) at 10uM” value: 27.2% for the first, 4.36% for the second.

Going from `Cn1c(=O)n(-c2ccccc2)c(=O)c2c3c(sc21)COC(C)(C)C3` to `CCCCc1cc(C)c(S(=O)(=O)c2ccccc2C)c(=O)[nH]1`, the “hERG current change (%, negative = inhibition) at 10uM” value rises from 0.657% to 3.69%.

Compared with `CC(C)c1nnc(NC(=O)C2CCN(C(=O)Nc3ccc(Cl)cc3)CC2)s1`, `CCc1noc(C)c1C(=O)N1CCCC(CCC(=O)NCc2ccc(F)c(F)c2)C1` (stereo not drawn) is lower in “hERG current change (%, negative = inhibition) at 10uM” value: 1.04% for the first, -0.135% for the second.

Going from `NNC(=O)CCCNc1ncc(C(F)(F)F)cc1Cl` to `CC12CCC(=O)N1C(C(=O)NNC(=O)COc1cccc(C(F)(F)F)c1)CS2` (stereo not drawn), the “hERG current change (%, negative = inhibition) at 10uM” value falls from 5.03% to 1.86%.

Compared with `O=C(CSc1nnnn1-c1ccccc1)Nc1nsc(-c2ccccc2)n1`, `COc1cccc(C(=O)CSc2nnc(CNc3nc(-c4ccccc4)cs3)n2C)c1` is higher in “hERG current change (%, negative = inhibition) at 10uM” value: -13.9% for the first, -7.48% for the second.

Compared with `O=S(=O)(NCc1ccc(F)cc1)c1ccccc1Br`, `O=C(CCc1c[nH]c2ccccc12)NCc1ccc2c(c1)OCO2` is lower in “hERG current change (%, negative = inhibition) at 10uM” value: -2.63% for the first, -12.5% for the second.

Compared with `CCOc1cc2[nH]c(=S)n(Cc3ccc(C(=O)NCC(OC)OC)cc3)c(=O)c2cc1OCC`, `COc1ccc(CN2CCNC(=O)C2CC(=O)N(C)Cc2nc(C)cs2)c(OC)c1` (stereo not drawn) is higher in “hERG current change (%, negative = inhibition) at 10uM” value: -4.98% for the first, 14.7% for the second.

First: COc1ccc(OC)c(C(=O)c2coc3ccc(O)cc23)c1
Second: COc1ccc2oc(C(=O)NCC(c3ccco3)N(C)C)c(C)c2c1 (stereo not drawn)
The “hERG current change (%, negative = inhibition) at 10uM” value of the first is higher: -1.61% for the first, -24.3% for the second.

Compared with `CCc1ccccc1NC(=O)CNCC(=O)Nc1ccccc1CC`, `CCOC(=O)c1[nH]c(CSc2nnnn2-c2ccccc2C)c(C(=O)OCC)c1C` is lower in “hERG current change (%, negative = inhibition) at 10uM” value: 12.2% for the first, 6.53% for the second.

Going from `CC(C)Oc1ccc(C(=O)NCc2cccs2)cc1` to `COc1ccc(S(=O)(=O)Nc2nc(C(F)(F)F)cs2)cc1`, the “hERG current change (%, negative = inhibition) at 10uM” value rises from -13% to 8.48%.

Compared with `CCC1(C)NC(=O)N(CC(=O)Nc2sc3c(c2C(N)=O)CCC3)C1=O` (stereo not drawn), `Cc1ccc(CN2CCNC(=O)C2CC(=O)N(Cc2c(C)nn(C)c2C)C2CC2)o1` (stereo not drawn) is higher in “hERG current change (%, negative = inhibition) at 10uM” value: 5.42% for the first, 23.9% for the second.

First: C=CCn1c2ccccc2c2n[nH]c(=S)nc21
Second: CC1=NN(c2ccc(N)cc2)C(=O)C1.Cl
The “hERG current change (%, negative = inhibition) at 10uM” value of the first is higher: 7.82% for the first, -6.68% for the second.

Compared with `Cc1noc(/C=C/Nc2ccc(F)cc2F)c1[N+](=O)[O-]`, `COc1ccc(S(=O)(=O)N2CCCC(C(=O)NCc3cccnc3)C2)cc1OC` (stereo not drawn) is lower in “hERG current change (%, negative = inhibition) at 10uM” value: 12.1% for the first, -14.9% for the second.

Compared with `CN1CCN(NC(=S)NC2CCCC2)CC1`, `CC1CCCN(C(=O)CN(C)S(=O)(=O)c2ccc3c(c2)c(=O)n(C)c(=O)n3C)C1` (stereo not drawn) is lower in “hERG current change (%, negative = inhibition) at 10uM” value: 15.7% for the first, -2.37% for the second.
